# Experimental data reported in PubChem BioAssay AID2546 (National Center for Advancing Translational Sciences (NCATS), 2010).
# Among all 310,000 compounds or so, about 11,000 (3.5%) were called active. This list was built around the results that the source calls inconclusive (neither active nor inactive); the mix of calls is not that of the screen. Calls follow the shape of the dose curve; as a rule, active = well fitted inhibition curve with a large enough effect; inconclusive = small, poorly fitted or top-dose-only effect, or effect the other way; inactive = flat fitted curve, though single readings scatter. No potency is given beside an inconclusive call; the fits are too rough.
# Test: VP16 counterscreen qHTS for inhibitors of ROR gamma transcriptional activity;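 also: Gal4-VP16 expression switched on by copper sulfate through the metallothionein promoter; nearly all actives have a fitted effect of over 50% in size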
# Settings: Drosophila S2 Gal4-VP16 UAS-luciferase, luminescence, 20 h; series mostly up to 53.6 µM
# Potency is read from the fitted curve at half-maximal effect; tags tell the direction and shape of the fitted curve.
row,SMILES,Potency
1,COc1ccc(OC)c(NC(=O)c2c(NC(=O)CNCc3ccco3)sc3c2CCC3)c1,active: 2.24 µM
2,CCOc1ccc(NC(=O)COC(=O)C23CC4CC(CC(C4)C2)C3)c([N+](=O)[O-])c1,inactive
3,COC(=O)c1[nH]c2ccc(Br)cc2c1NC(=O)CN1CCN(C2CCCCC2)CC1,"inconclusive [inhibitor, single point]"
4,COc1ccc(Cl)cc1/C=C/c1ccc2cccc(O)c2n1,active: 0.794 µM
5,COc1cccc(C(=O)Nc2nnc(-c3ccc(Cl)cc3)o2)c1,active: 1.58 µM
6,COC(=O)Cc1ccc(NC(=S)NCCC(C)C)cc1,"inconclusive [inhibitor, single point]"
7,CC1Cc2cc(/C=C3/SC(=S)NC3=O)ccc2O1 (centres undefined),"inconclusive [activator, single point]"
8,O=C(CCn1c2c(c3ccccc31)CCCC2)NNC(=O)c1cccc([N+](=O)[O-])c1,"inconclusive [activator, single point]"
9,CC1CCN(c2cc(N3CCN(C(=O)c4ccc(F)c(F)c4)CC3)c([N+](=O)[O-])cc2F)CC1,"inconclusive [inhibitor, single point]"
10,COc1cccc(CNS(=O)(=O)c2cccc(S(=O)(=O)N3CCOCC3)c2)c1,"inconclusive [inhibitor, single point]"
11,CCCCc1ccc(S(=O)(=O)N/N=C(/C)c2ccncc2)cc1,"inconclusive [inhibitor, single point]"
12,O=C(OCc1ccccc1)c1cccc(-c2nnn(Cc3ccccc3)n2)c1,"inconclusive [inhibitor, partial curve]"
13,Cc1ccnc(Nc2nc(-c3c(C)nc4sccn34)cs2)c1,"inconclusive [inhibitor, single point]"
14,Cc1cc(NS(=O)(=O)c2ccccc2)c(C)c(Cl)c1O,"inconclusive [inhibitor, single point]"
15,O=C(c1ccc2c(=O)n(C3CCCC3)c(=S)[nH]c2c1)N1CCc2ccccc21,active: 3.16 µM
16,Cc1ccc(NC(=S)NCc2cccs2)cc1,"inconclusive [inhibitor, single point]"
17,CCOc1ccc(N2Nc3n[nH]c(N)c3N2)cc1,"inconclusive [activator, partial curve, poor fit]"
18,Cn1cccc1Cc1nnc(SCC(=O)Nc2cccc(F)c2)n1-c1ccc(F)cc1,"inconclusive [inhibitor, single point]"
19,CC1CC(C)CN(CCCn2c(=S)[nH]c3ccccc3c2=O)C1 (centres undefined),"inconclusive [inhibitor, single point]"
20,COC(=O)c1ccccc1NC(=S)NC(=O)c1ccccc1C,"inconclusive [inhibitor, single point]"
21,O=C(c1ccccc1F)N1CCN(c2ccc([N+](=O)[O-])c3ncccc23)CC1,"inconclusive [inhibitor, partial curve]"
22,CCCCNc1nc(=S)n(-c2ccccc2)c(C)c1C(C)=O,inactive

row,SMILES,Potency
1,OCC#CCSc1nnc(-c2ccc(Br)cc2)o1,"inconclusive [inhibitor, partial curve]"
2,CCCN(CCC)S(=O)(=O)c1cccc(C(=O)N=c2sccn2C)c1,"inconclusive [inhibitor, single point]"
3,CC1CCCN(C/C(O)=C(\C#N)c2nc3ccccc3[nH]2)C1 (centres undefined),"inconclusive [inhibitor, single point]"
4,CCn1c(SCC(=O)Nc2ccc(OC)cc2)nc2nc3c(cc2c1=O)CCCC3,inactive
5,COc1ccc(C(=S)NCS(=O)(=O)c2ccc(C)cc2)cc1,"inconclusive [inhibitor, partial curve, poor fit]"
6,Cc1ccc(C2(c3ccc(C)cc3)CC2C(=O)Nc2ccc([N+](=O)[O-])cc2O)cc1 (centres undefined),"inconclusive [inhibitor, single point]"
7,C[C@@H](C[C@@H](O)[C@H](O)C(C)(C)O)[C@@H]1CC[C@]2(C)C3=CC[C@H]4C(C)(C)C(=O)CC[C@]4(C)[C@H]3CC[C@@]12C,"inconclusive [inhibitor, single point]"
8,O=C(O)CCC(=O)C(=O)O,inactive
9,Brc1ccccc1/C=N/Nc1ccc2ccccc2n1,active: 8.91 µM
10,Cc1ccc(/C(=N/Nc2ncnc3ccccc23)C(=O)O)cc1,active: 0.891 µM
11,CCOc1ccc2nc(NC(=S)NCc3ccccc3)sc2c1,active: 2.82 µM
12,Cc1ccccc1OCC(=O)Nc1cccc(N(C)S(C)(=O)=O)c1,"inconclusive [activator, single point]"
13,COc1ccccc1NC(=O)C/C(C)=N/NC(=O)C12CC3CC(CC(C3)C1)C2,"inconclusive [inhibitor, single point]"
14,CCc1nonc1NC(=O)c1oc2ccc(C)cc2c1C,"inconclusive [inhibitor, single point]"
15,O=C(C1CC1)N1CCc2cc(Br)cc(S(=O)(=O)N3CCN(c4ccccn4)CC3)c21,active: 22.4 µM
16,Nc1nc(CSc2ncn[nH]2)nc(Nc2ccc(F)cc2)n1,"inconclusive [activator, full curve, poor fit]"
17,CN(C)c1ccc(NC(=S)NC23CC4CC(CC(C4)C2)C3)cc1,active: 5.01 µM
18,CCOc1ccc(CN2C(=O)c3ccccc3C2=O)cc1C(=O)O,inactive
19,O=C1Nc2ccccc2N(O)N1c1cc(-c2ccccc2Cl)no1,"inconclusive [inhibitor, single point]"
20,Cc1cccc(/C=N/NC(=O)c2ccc(NC(=O)c3ccc(Cl)cc3)cc2)n1,"inconclusive [inhibitor, single point]"
21,CCc1ccc(Nc2n[n+](-c3ccccc3)c(-c3ccc(N(CC)CC)cc3)s2)cc1,active: 12.6 µM
22,Cc1nc(N2CCN(C)CC2)c2c(C)c(C(=O)Nc3ccc(C)c(F)c3)sc2n1,"inconclusive [inhibitor, single point]"
